This passage reports activity change, negative = inhibition results from PubChem BioAssay AID1745853 (National Center for Advancing Translational Sciences (NCATS), 2022).

This is one part of the list. These are further read-outs of the screen, such as a control signal, another cell line or another target. No call is given for them.

Experiment in all cases: Primary Screen for Target Class Profiling of Small Molecule Inhibitors of Methyltransferases
In experiment [1] the target is Glycine N-methyltransferase (Homo sapiens) (UniProt Q14749). As to conditions: purified enzyme, MTase-Glo SAH luminescence; measured here: GNMT inhibition; at 40 µM; stronger effect = lower value. A digest of the protocol:
(§1)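 Each enzyme was reacted with SAM and its substrate, with compounds tested once at 40 uM; SAH formed was read by MTase-Glo luminescence.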

Experiment [2] has as its target Guanidinoacetate N-methyltransferase (Homo sapiens) (UniProt Q14353). As to conditions: purified enzyme, MTase-Glo SAH luminescence; measured here: GAMT inhibition; at 40 µM; stronger effect = lower value. In a few lines:
as §1

Experiment [3] deals with Histamine N-methyltransferase (Homo sapiens) (UniProt P50135). Particulars: purified enzyme, MTase-Glo SAH luminescence; measured here: HNMT inhibition; at 40 µM; stronger effect = lower value. A digest of the protocol: as §1
The target of experiment [4] is Nicotinamide N-methyltransferase (Homo sapiens) (UniProt P40261). Particulars: purified enzyme, MTase-Glo SAH luminescence; measured here: NNMT inhibition; at 40 µM; stronger effect = lower value. A digest of the protocol: as §1
Experiment [5] deals with Phenylethanolamine N-methyltransferase (Homo sapiens) (UniProt P11086). Particulars: purified enzyme, MTase-Glo SAH luminescence; measured here: PNMT inhibition; at 40 µM; stronger effect = lower value. A digest of the protocol: as §1
% is scaled to controls: 0 for no effect and ±100 for the full control effect.

Regarding `CC1CCC(NC(=O)C2(C)Cn3c(nc4ccccc43)C(=O)N2Cc2ccccc2Cl)CC1` (stereo not given), the activity change, negative = inhibition was -0.17% in experiment [1]; 2.73% in experiment [2]; -3.25% in experiment [3]; -1.82% in experiment [4]; -5.49% in experiment [5].

Turning to `COc1cccc(N2C(=O)c3cc4occc4n3CC2(C)C(=O)NC2CCCCC2)c1` (stereo not given), the activity change, negative = inhibition in experiment [1] was -8.15%; in experiment [2] it was -6.85%; in experiment [3] it was -5.25%; in experiment [4], -3.4%; in experiment [5] it was -6.04%.

On to `CCCN1C(=O)c2cc3ccccc3n2CC1(C)C(=O)NC1CCCCC1` (stereo not given), for which the activity change, negative = inhibition was -1.45% in experiment [1]; 0.505% in experiment [2]; 1.31% in experiment [3]; 0.785% in experiment [4]; -0.44% in experiment [5].

Consider `COc1cc(/C=N\NC(=O)c2ccc3c(c2)OCO3)ccc1OCc1ccccc1`, for which the activity change, negative = inhibition in experiment [1] was -3.27%; in experiment [2], -6.14%; in experiment [3], -81.1%; in experiment [4], -31%; in experiment [5] it was -11.1%.

For `COc1ccccc1CNC(=O)C1c2c(n(C)c3ccccc23)SCC(=O)N1Cc1ccccc1Cl` (stereo not given), the activity change, negative = inhibition was 14.5% in experiment [1]; 1.63% in experiment [2]; 5.9% in experiment [3]; 0.533% in experiment [4]; 5.49% in experiment [5].

`CCCCN1C(=O)c2ccccc2CC1(C)C(=O)NCc1ccc(Cl)cc1` (stereo not given): the activity change, negative = inhibition in experiment [1] came to 10.9%; in experiment [2] it was 0%; in experiment [3], 4.28%; in experiment [4], 4.56%; in experiment [5], 5.09%.

As for `O=Nc1c(-c2c(O)[nH]c3ccccc23)[nH]c2ccccc12`, the activity change, negative = inhibition is -39% in experiment [1]; -21.6% in experiment [2]; -22.1% in experiment [3]; -33.1% in experiment [4]; -25.5% in experiment [5].

For the compound `COc1ccc2[nH]cc(CCNC(C)=O)c2c1`, the activity change, negative = inhibition in experiment [1] was -8.64%; in experiment [2] it was 2.75%; in experiment [3], -1.4%; in experiment [4] it was -2.28%; in experiment [5], 6.81%.

As to `Cc1ccc2c(c1)c(-n1cccc1)c1n2CC(C)(C(=O)NC2CCCC2)N(Cc2cccs2)C1=O` (stereo not given), the activity change, negative = inhibition in experiment [1] is -18.2%; in experiment [2] it was 1.91%; in experiment [3] it was -10.2%; in experiment [4], -25%; in experiment [5] it was -6.35%.

On to `CN1C(=O)c2cc(C(=O)NCc3ccccc3)nn2CC1(C)C(=O)NC1CCCC1` (stereo not given), for which the activity change, negative = inhibition in experiment [1] is 8.59%; in experiment [2], 1.24%; in experiment [3], 8.31%; in experiment [4], 12.9%; in experiment [5], 6.89%.

Regarding `CCCc1cc(N2CCC(NCc3c(F)cccc3Cl)CC2)nc(C)n1`, the activity change, negative = inhibition in experiment [1] was -3.1%; in experiment [2], -1.41%; in experiment [3], -5.51%; in experiment [4], -3.66%; in experiment [5] it was 2.73%.

As to `COC[C@H]1CCCN1C(=O)C[C@@H]1O[C@H](CNS(C)(=O)=O)[C@@H](O)[C@H]1O`, the activity change, negative = inhibition in experiment [1] was -1.64%; in experiment [2], 2.25%; in experiment [3], -0.337%; in experiment [4] it was 1.04%; in experiment [5] it was -0.307%.

With `Cc1cc(C(=O)N2CCc3ncnc(N4CCOCC4)c3CC2)n(C)n1`, the activity change, negative = inhibition in experiment [1] was -1.52%; in experiment [2], -2.98%; in experiment [3] it was -1.66%; in experiment [4], -1.88%; in experiment [5], -0.129%.

In the case of `CC(C)Cn1c(=O)c2ccc(Cl)cc2n2c(SCC(=O)Nc3ccc(F)cc3)nnc12`, the activity change, negative = inhibition is -6.73% in experiment [1]; 4.37% in experiment [2]; 1.34% in experiment [3]; -12.1% in experiment [4]; -2.27% in experiment [5].

For `CCOc1ccc(N2C(=O)c3nc4ccccc4n3CC2(C)C(=O)NCc2ccccc2)cc1` (stereo not given), the activity change, negative = inhibition is 2.11% in experiment [1]; 0.613% in experiment [2]; 6.82% in experiment [3]; 10.9% in experiment [4]; -1.29% in experiment [5].

As to `Cc1ccc(NC(=O)c2cc3n(n2)CC(C)(C(=O)NC2CCCCC2)N(C)C3=O)cc1C` (stereo not given), the activity change, negative = inhibition in experiment [1] came out at 5.07%; in experiment [2], 0%; in experiment [3], 3.06%; in experiment [4], 6.13%; in experiment [5], 1.68%.

For the compound `CN(C)CCN(Cc1ccccc1)C(=O)c1cc(-c2ccc(F)cc2)n2nc(C(C)(C)C)cc2n1`, the activity change, negative = inhibition in experiment [1] is -2.65%; in experiment [2], -3.88%; in experiment [3] it was -26.8%; in experiment [4], -25%; in experiment [5], -1.02%.

For `CN1C(=O)c2cc(C(=O)NCc3ccc(Cl)cc3)nn2CC1(C)C(=O)NCc1ccc(F)cc1` (stereo not given), the activity change, negative = inhibition turned out to be 0.748% in experiment [1]; 4.78% in experiment [2]; 2.81% in experiment [3]; 4.18% in experiment [4]; 0.41% in experiment [5].

Take `COc1ccc(F)cc1-c1cccc(C(=O)NCC(=O)N2CCN(C)CC2)c1`: the activity change, negative = inhibition was -2.72% in experiment [1]; -4.3% in experiment [2]; -0.637% in experiment [3]; -12.9% in experiment [4]; 5.95% in experiment [5].

`Cc1ccccc1NC(=O)Cn1nc2n(C)c(=O)c3ccc(C(=O)NC4CCCC4)cc3n2c1=O`: the activity change, negative = inhibition in experiment [1] is -1.01%; in experiment [2], 4.29%; in experiment [3], -0.718%; in experiment [4] it was -2.31%; in experiment [5], -0.852%.

Turning to `CCOc1ccc(CNC(=O)c2cc3n(n2)CC(C)(C(=O)NC2CCCCCC2)N(C)C3=O)cc1` (stereo not given), the activity change, negative = inhibition was -1.3% in experiment [1]; 2.78% in experiment [2]; -4.4% in experiment [3]; -2.86% in experiment [4]; -1.55% in experiment [5].

Consider `COc1ccc(CN2C(=O)c3cc4ccc(OC)cc4n3CC2(C)C(=O)NC2CCCC2)cc1` (stereo not given), for which the activity change, negative = inhibition in experiment [1] is -7.65%; in experiment [2], 1.19%; in experiment [3] it was -6.91%; in experiment [4], -14.5%; in experiment [5], -5.08%.

On to `c1coc(-c2ccnc3nc(C4CCC4)nn23)c1`, for which the activity change, negative = inhibition in experiment [1] was -24.8%; in experiment [2] it was -7.53%; in experiment [3], -6.56%; in experiment [4] it was -18.1%; in experiment [5], -12.4%.

In the case of `COCCCNc1nc2c(S(=O)(=O)c3ccccc3)nnn2c2ccccc12`, the activity change, negative = inhibition in experiment [1] amounted to 4.58%; in experiment [2], 0%; in experiment [3] it was 9.94%; in experiment [4], 7.7%; in experiment [5], 3.45%.

In the case of `Cc1cc(C)n(-c2cccc(CN(C)C(=O)c3cn(Cc4ccc(Cl)cc4)nn3)c2)n1`, the activity change, negative = inhibition in experiment [1] was -21.5%; in experiment [2], -7.47%; in experiment [3] it was -6.2%; in experiment [4] it was -14.9%; in experiment [5], -0.925%.

`CCCN(CCC)CCCN1C(=O)c2cc3occc3n2CC1(C)C(=O)NC1CCCCCC1` (stereo not given): the activity change, negative = inhibition in experiment [1] stood at 3.15%; in experiment [2] it was 0%; in experiment [3] it was 2.06%; in experiment [4], 10.4%; in experiment [5], 2.09%.

With `Cc1noc(C)c1-c1ccc2c(n1)CN(Cc1nc3ccccc3s1)C(=O)CO2`, the activity change, negative = inhibition in experiment [1] was -14.2%; in experiment [2], -8.97%; in experiment [3], -26.3%; in experiment [4], -28.6%; in experiment [5], -9.5%.

As for `C/C=C/C=C/C=C/C(=O)O[C@@H]1C=C(CO)C(O)(C(=O)O)[C@@]2(C)CCCC(C)(C)[C@H]12` (stereo not given in full), the activity change, negative = inhibition in experiment [1] was -1.05%; in experiment [2], -22.6%; in experiment [3], -1.26%; in experiment [4], -35.6%; in experiment [5] it was -2.38%.

Regarding `O=S(=O)(N[C@H]1CCCC[C@@H]1N1CCOCC1)c1ccc(Cl)cc1`, the activity change, negative = inhibition in experiment [1] was 0.536%; in experiment [2], -2.81%; in experiment [3] it was 4.8%; in experiment [4] it was -12%; in experiment [5], -2.69%.

As for `CC(C)CCNC(=O)C1(C)Cn2c(cc3ccccc32)C(=O)N1Cc1ccc(F)cc1` (stereo not given), the activity change, negative = inhibition was -2.16% in experiment [1]; 4.32% in experiment [2]; -0.236% in experiment [3]; -7.31% in experiment [4]; -2.48% in experiment [5].
